# In PubChem BioAssay AID686979 (National Center for Advancing Translational Sciences (NCATS), 2013):
# Among all 420,000 compounds or so, about 50,000 (12%) were called active. This list was built around the results that the source calls inconclusive (neither active nor inactive); the mix of calls is not that of the screen. Calls come from the whole dose curve; as a rule, active = well fitted inhibition curve with a large enough effect; inconclusive = small, poorly fitted or top-dose-only effect; inactive = flat fitted curve, though single readings scatter. No potency is given beside an inconclusive call; the fits are too rough.
# Experiment: qHTS for Inhibitors of human tyrosyl-DNA phosphodiesterase 1 (TDP1): qHTS in cells in presence of CPT; note: nearly all actives have a fitted effect of over 55% in size
# Conditions: chicken DT40 Tdp1-/-;hTDP1 cells + 20 nM CPT, ATP luminescence, 48 h; activity change, negative = growth inhibition: at 46.2 µM (top of the series) unless noted
# In short: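 Cell growth measured by CellTiter-Glo luminescence after a minimum 48 h, 37 C compound exposure with 20 nM CPT in Tdp1-knockout DT40 cells stably expressing hTDP1, seeded 400/well; qHTS titration format.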
# % is set by controls: 0 for no effect and ±100 for the full control effect; potency is the fitted concentration of half-maximal effect; tags give direction and shape of the fitted curve.
Structure (SMILES),Potency,"activity change, negative = growth inhibition"
Cc1ccc2oc(=O)c(S(=O)(=O)c3ccc(F)cc3)cc2c1,inactive,–
Cc1c(Br)cccc1NC(=O)C1(C)CCN1C(C)C (stereo unspecified),"inconclusive [inhibitor, single point]",–
COc1ccc(C(=O)NCC[N+](C)(C)C)cc1,inactive,–
Oc1ccc(C=NN=Cc2ccco2)c(O)c1,inactive,–
Cn1c(CCNC(=O)c2ccco2)nc2cc(NS(=O)(=O)c3ccccc3)ccc21,active: 20.6 µM,–
CCN1C(Br)=CCc2ccccc21,inactive,–
O=C(C1=C[C@@H](c2csc3ccccc23)C[C@@H](OCCCCO)O1)N1CCN(Cc2ccc3c(c2)OCO3)CC1,"inconclusive [inhibitor, single point]",–
CC1CCN(S(=O)(=O)c2ccc3c(c2)NC(=O)CS3)CC1,inactive,–
CCOC(=O)C1(C(=O)OCC)C(C(=O)c2ccccc2)C1c1ccccc1 (stereo unspecified),"inconclusive [inhibitor, partial curve]",–
Cc1cccc(NC(=O)c2nc[nH]c2C(=O)N[C@@H](CC(C)C)C(=O)OC(C)(C)C)c1,"inconclusive [inhibitor, single point]",–
CC(C)C(=O)NC(Nc1ccccc1F)C(Cl)(Cl)Cl (stereo unspecified),"inconclusive [inhibitor, single point]",–
COc1ccc(NC(=O)COc2nsnc2N2CCCCC2)cc1,active: 11.6 µM,–
c1ccc(CSCc2ccccc2)cc1,–,inconclusive: -24.5% [inhibitor]
C=CCc1ccccc1Oc1cc(OC)nc(N)n1,"inconclusive [inhibitor, single point]",–
CC(C)c1ccc(OC(=O)c2ccc3c(=O)n4c(nc3c2)CCC4)cc1,"inconclusive [inhibitor, partial curve]",–
CC(=O)c1ccc(NS(=O)(=O)c2ccc(C(C)(C)C)cc2)cc1,"inconclusive [inhibitor, partial curve, poor fit]",–
CCN([C@H](CO)C(C)C)S(=O)(=O)c1ccccc1Br,inactive,–
O=C(Cc1csc(NC(=O)Nc2cccc(Cl)c2)n1)NC1CCCC1,"inconclusive [inhibitor, single point]",–
Cc1cc(C)n(-c2ccc(NC(=O)C3CCCCN3C(=O)c3sccc3C)cc2)n1 (stereo unspecified),"inconclusive [inhibitor, single point]",–
CCc1ccc(S(=O)(=O)NCc2csc(C)n2)s1,"inconclusive [inhibitor, partial curve]",–
CCN(CC)CCN(C(=O)c1ccco1)c1nc2c(C)c(C)ccc2s1,active: 23.1 µM,–
